{
  "source": "the supplement of paper PMC9446081",
  "note": "Out of some 39,000 compounds screened, about 220 (0.56%) showed activity. The list shows a part of the results.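 Note: static incubation at 37 °C against the wild-type strain, values averaged over two biological replicates.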",
  "data": [
    {"tested_on": "Escherichia coli K-12 BW25113", "test": "relative growth (OD600 normalised to plate interquartile mean) (fraction); higher = less growth inhibition, active = 0.2 or less", "details": "50 µM; LB; incubation time: overnight (16-24 h)", "values": [
      {"molecule": "Cc1noc(C)c1S(=O)(=O)N(C)C[C@H]1Oc2ccc(NC(=O)CCC(F)(F)F)cc2CC(=O)N([C@H](C)CO)C[C@@H]1C", "relative growth": "inactive: 0.996"},
      {"molecule": "Cc1ccc(S(=O)(=O)Nc2cccc3c2O[C@H](CN(C)C(=O)Nc2ccc(C(F)(F)F)cc2)[C@H](C)CN([C@H](C)CO)C3=O)cc1", "relative growth": "inactive: 1"},
      {"molecule": "C[C@@H]1CN([C@H](C)CO)C(=O)c2cccc(NS(=O)(=O)c3cn(C)cn3)c2O[C@@H]1CN(C)S(=O)(=O)c1ccc(F)cc1", "relative growth": "inactive: 1"},
      {"molecule": "C[C@H]1CN([C@@H](C)CO)C(=O)c2cc(NC(=O)CCN3CCOCC3)ccc2O[C@H]1CN(C)S(=O)(=O)c1cn(C)cn1", "relative growth": "inactive: 1.04"},
      {"molecule": "CO[C@H](CN(C)S(=O)(=O)c1cccc(Cl)c1)[C@H](C)CN([C@H](C)CO)S(=O)(=O)c1ccc(Cl)cc1", "relative growth": "inactive: 1.04"},
      {"molecule": "C[C@@H]1CCCCO[C@H](CN(C)S(=O)(=O)c2cn(C)cn2)[C@@H](C)CN([C@H](C)CO)C(=O)c2cc(NC(=O)Nc3ccc(C(F)(F)F)cc3)ccc2O1", "relative growth": "inactive: 1.02"},
      {"molecule": "C[C@H]1CCCCO[C@H](CN(C)Cc2ccncc2)[C@@H](C)CN([C@@H](C)CO)C(=O)c2cc(NC(=O)CCC(F)(F)F)ccc2O1", "relative growth": "inactive: 0.985"},
      {"molecule": "Cc1ccc(S(=O)(=O)Nc2cccc3c2O[C@@H](CN(C)S(=O)(=O)c2cn(C)cn2)[C@@H](C)CN([C@H](C)CO)C3=O)cc1", "relative growth": "inactive: 0.987"},
      {"molecule": "CCS(=O)(=O)N1C[C@]2(C1)CN([C@H](CO)c1[nH]c3cc(ccc3c12)OC)C(=O)Nc1c(noc1C)C", "relative growth": "inactive: 0.988"},
      {"molecule": "O=c1[nH]c(=O)c2[nH]c(=O)[nH]c2[nH]1", "relative growth": "inactive: 0.999"},
      {"molecule": "C[C@@H]1CCCCO[C@@H](CN(C)Cc2ccc(C(=O)Nc3ccccc3N)cc2)[C@@H](C)CN([C@H](C)CO)C(=O)c2cc(NC(=O)NC3CCCCC3)ccc2O1", "relative growth": "inactive: 1"},
      {"molecule": "C[C@@H]1CN([C@@H](C)CO)C(=O)c2cccc(NS(=O)(=O)c3cn(C)cn3)c2O[C@@H]1CN(C)CC1CC1", "relative growth": "inactive: 1.02"},
      {"molecule": "O=C(C[C@@H]1C[C@H]2c3cc(NS(=O)(=O)c4ccc(F)cc4)ccc3O[C@H]2[C@@H](CO)O1)NCc1ccccn1", "relative growth": "inactive: 1.02"},
      {"molecule": "COc1ccc(S(=O)(=O)N(C)C[C@H]2Oc3ccc(NC(=O)NC(C)C)cc3CC(=O)N([C@H](C)CO)C[C@@H]2C)cc1", "relative growth": "inactive: 1.01"},
      {"molecule": "CS(=O)(=O)N(CC(=O)O)Cc1ccccc1", "relative growth": "inactive: 0.926"},
      {"molecule": "C=CC(=O)N1CC[C@@H](Oc2nc(Nc3ccc(N4CCC(N5CCN(C)CC5)CC4)cc3)c(C(N)=O)nc2CC)C1", "relative growth": "inactive: 1.03"},
      {"molecule": "COc1ccc(NC(=O)Nc2cccc3c2O[C@@H](CN(C)C(=O)Nc2cccc4ccccc24)[C@@H](C)CN([C@H](C)CO)C3=O)cc1", "relative growth": "inactive: 1.03"},
      {"molecule": "CCCC#Cc1ccc2c(c1)O[C@@H](CN(C)S(=O)(=O)c1cccc(OC)c1)[C@@H](C)CN([C@H](C)CO)S2(=O)=O", "relative growth": "inactive: 1.02"},
      {"molecule": "COc1ccccc1CN1C(=O)c2ccccc2[C@@]2(Cc3ccccc3N(CC(F)(F)F)C2=O)[C@@H]1c1ccc(CO)cc1", "relative growth": "inactive: 1.03"},
      {"molecule": "C[C@@H]1CN([C@H](C)CO)C(=O)c2cc(NS(=O)(=O)c3cn(C)cn3)ccc2O[C@@H](C)CCCCO[C@@H]1CN(C)Cc1ccc(C(F)(F)F)cc1", "relative growth": "inactive: 0.905"},
      {"molecule": "Cc1noc(C)c1S(=O)(=O)Nc1ccc2c(c1)C(=O)N([C@H](C)CO)C[C@H](C)[C@@H](CN(C)Cc1ccc(C(F)(F)F)cc1)OCCCC[C@@H](C)O2", "relative growth": "inactive: 1.02"},
      {"molecule": "C[C@H](NC(=O)N(C)C[C@@H]1OCc2ccccc2-c2c(n(C)c3ccccc23)C(=O)N([C@@H](C)CO)C[C@H]1C)c1ccccc1", "relative growth": "inactive: 0.986"},
      {"molecule": "COc1ccc(S(=O)(=O)N(C)C[C@@H]2Oc3ccc(NS(=O)(=O)c4ccc(C)cc4)cc3C(=O)N([C@H](C)CO)C[C@@H]2C)cc1", "relative growth": "inactive: 1.01"},
      {"molecule": "C[C@@H]1CCCCO[C@@H](CN(C)C(=O)c2ccncc2)[C@@H](C)CN([C@H](C)CO)C(=O)c2cc(NS(=O)(=O)c3ccc(Cl)cc3)ccc2O1", "relative growth": "inactive: 1.03"},
      {"molecule": "COc1ccc(NC(=O)N(C)C[C@@H]2Oc3ccc(NC(=O)Nc4cccc5ccccc45)cc3C(=O)N([C@@H](C)CO)C[C@H]2C)cc1", "relative growth": "inactive: 1"},
      {"molecule": "C[C@@H]1CN([C@H](C)CO)C(=O)c2cc(-c3cccnc3)cnc2O[C@@H]1CN(C)Cc1ccc(-c2ccccc2)cc1", "relative growth": "inactive: 1.01"},
      {"molecule": "NC[C@H](c1cccs1)N1CCCCCC1", "relative growth": "inactive: 1.04"},
      {"molecule": "C[C@H](CO)N1C[C@H](C)[C@H](CN(C)S(=O)(=O)c2ccc(F)cc2)OCCCC[C@H](C)Oc2ccc(NC(=O)C3CCCCC3)cc2C1=O", "relative growth": "inactive: 1.02"},
      {"molecule": "Cc1noc(C)c1NC(=O)N(C)C[C@@H]1OCCCC[C@H](C)Oc2ccc(NC(=O)NC3CCCCC3)cc2C(=O)N([C@H](C)CO)C[C@@H]1C", "relative growth": "inactive: 1"},
      {"molecule": "C[C@@H]1CN([C@@H](C)CO)C(=O)c2cc(NC(=O)NC3CCCCC3)ccc2O[C@@H](C)CCCCO[C@H]1CN(C)Cc1ccncc1", "relative growth": "inactive: 1.02"},
      {"molecule": "CCN1CCN(C(=O)NC(C(=O)NC2C(=O)N3C(C(=O)O)=C(CSc4nnnn4C)CSC23)c2ccc(O)cc2)C(=O)C1=O", "note": "(stereo not drawn)", "relative growth": "active: 0.046"},
      {"molecule": "C[C@@H]1CN([C@H](C)CO)C(=O)c2c(c3ccccc3n2C)-c2ccccc2CO[C@@H]1CN(C)C(=O)c1cc(Cl)cc(Cl)c1", "relative growth": "inactive: 1.04"},
      {"molecule": "c1ccc(CCN2CCNCC2)nc1", "relative growth": "inactive: 0.997"},
      {"molecule": "O=C(C[C@@H]1CC[C@H]2[C@@H](COC[C@@H](O)CN2S(=O)(=O)c2ccccc2)O1)N[C@H]1CCN(Cc2ccccc2)C1", "relative growth": "inactive: 0.997"},
      {"molecule": "CC(=O)c1ccc(F)c(Cl)c1", "relative growth": "inactive: 0.998"},
      {"molecule": "Cc1noc(C)c1NC(=O)N(C)C[C@H]1Oc2ccc(NC(=O)CCN3CCOCC3)cc2C(=O)N([C@@H](C)CO)C[C@H]1C", "relative growth": "inactive: 0.953"},
      {"molecule": "COc1ccc(C(=O)CO)cc1", "relative growth": "inactive: 0.993"},
      {"molecule": "C[C@@H]1CN([C@H](C)CO)C(=O)c2cccc(NC(=O)c3ccncc3)c2O[C@H]1CN(C)Cc1ccc(-c2ccccc2)cc1", "relative growth": "inactive: 1.01"}
    ]}
  ]
}
